# Source: publication PMC6692068, “Hsp70 and DNAJA2 limit CFTR levels through degradation” (PLoS ONE, 2019)
# Target: T1, Flag-Hsp70 (UniProt P0DMV8)
# T1 construct: Hsp70, the inducible homolog of Hsc70 (HSPA1A/B); also called FLAG-tagged Hsp70; HSPA1A/B; source: HEK293-Tet-On, transfected (pcDNA3.1), in lysate
# Experiment: co-IP; Flag-Hsp70 immunoprecipitated with anti-Flag M2 magnetic beads, 2 h at 4°C, from HEK-Tet-On lysate (PBS, 1% TX-100); CFTR induced for 6 h with 20 μM MG132; without or with co-expressed myc-DJA2; washed with PBS, 0.1% TX-100; eluted with FLAG peptide; immunoblot
# Conditions: partners not purified
# Flag-Hsp70, sequence (P0DMV8 whole entry): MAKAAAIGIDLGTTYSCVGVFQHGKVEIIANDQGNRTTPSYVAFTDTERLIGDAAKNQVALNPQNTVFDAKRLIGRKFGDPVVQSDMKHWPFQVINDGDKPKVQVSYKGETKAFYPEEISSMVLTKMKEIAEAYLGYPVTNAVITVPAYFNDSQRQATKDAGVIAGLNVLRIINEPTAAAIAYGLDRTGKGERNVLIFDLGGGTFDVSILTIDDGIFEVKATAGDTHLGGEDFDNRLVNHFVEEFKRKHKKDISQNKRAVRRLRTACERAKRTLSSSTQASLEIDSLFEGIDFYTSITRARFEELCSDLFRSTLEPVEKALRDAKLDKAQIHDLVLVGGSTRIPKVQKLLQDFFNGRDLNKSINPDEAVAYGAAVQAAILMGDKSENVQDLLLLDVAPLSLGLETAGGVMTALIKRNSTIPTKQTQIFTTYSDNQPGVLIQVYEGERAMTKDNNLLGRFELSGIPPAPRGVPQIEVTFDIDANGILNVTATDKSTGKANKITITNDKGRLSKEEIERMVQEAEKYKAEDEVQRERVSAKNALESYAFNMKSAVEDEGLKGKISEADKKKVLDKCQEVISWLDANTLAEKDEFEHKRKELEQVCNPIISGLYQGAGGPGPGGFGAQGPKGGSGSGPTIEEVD
binder,measurement,value
"CFTR-3HA (natural protein, Cystic Fibrosis transmembrane conductance regulator (CFTR, gene ABCC7), wild type; it may be internal (an extracellular loop) in this widely used construct (surmised); also called WT CFTR; Cystic Fibrosis transmembrane conductance regulator; source: HEK293-Tet-On, transfected (pTRE-Tight, induced with doxycycline for 6 h), in lysate) not shown","fold increase of CFTR bound by Hsp70 with overexpressed DJA2, against Flag-Hsp70 without myc-DJA2",2.1 fold
